One assay has as its system HUVEC-TIE2-L914F. Kind of assay: cells. To be noted: Homo sapiens; for inhibition at 20 µM: read-out: Average proliferation Inhibition rate (%) L914F.
A further assay concerns HUVEC-TIE2-WT. Kind of assay: cells. To be noted: Homo sapiens; for inhibition at 20 µM: read-out: Average proliferation Inhibition rate (%) WT; for IC50: read-out: IC50 WT.

The structures appear in SMILES notation. Structures can show the parent of a compound that is named as a salt.

For `Nc1ncn([C@H]2C[C@H](O)[C@@H](CO)O2)c(=O)n1` [Decitabine], the results for the inhibition at 20 µM in the assay with HUVEC-TIE2-L914F and in the assay on HUVEC-TIE2-WT were 8.76% and -1.12%, respectively.
Consider `S=c1nc[nH]c2nc[nH]c12` [Mercaptopurine], for which the inhibition at 20 µM amounted to 10.9% with HUVEC-TIE2-L914F and 0.45% in the assay with HUVEC-TIE2-WT.
Taken in the same sequence, the figures for `Oc1ncnc2[nH]ncc12` [Allopurinol] were -0.18% and -1.38%.
Turning to `CCc1c2c(nc3ccc(OC(=O)N4CCC(N5CCCCC5)CC4)cc13)-c1cc3c(c(=O)n1C2)COC(=O)[C@]3(O)CC` [Irinotecan hydrochloride], the inhibition at 20 µM in the assay on HUVEC-TIE2-L914F worked out at 22.3%; in the assay on HUVEC-TIE2-WT, 19.4%.
For `C[C@]12CC[C@@H]3c4ccc(O)cc4C[C@@H](CCCCCCCCC[S+]([O-])CCCC(F)(F)C(F)(F)F)[C@H]3[C@@H]1CC[C@@H]2O` (stereo partly shown) [Fulvestrant], in that order: 3.89% and -2.52%.
Taken in the same sequence, the figures for `Nc1cccc2c1C(=O)N(C1CCC(=O)NC1=O)C2=O` (stereo not shown) [Pomalidomide] were -1.48% and -4.53%.
As to `Clc1ccc(C(c2ccccc2Cl)C(Cl)Cl)cc1` (stereo not shown) [Mitotane], the inhibition at 20 µM is 4.55% in the assay with HUVEC-TIE2-L914F and -0.12% with HUVEC-TIE2-WT.
On to `C[C@@H](Oc1cc(-c2cnn(C3CCNCC3)c2)cnc1N)c1c(Cl)ccc(F)c1Cl` [Crizotinib], for which the values for the inhibition at 20 µM in the assay with HUVEC-TIE2-L914F and with HUVEC-TIE2-WT were 78.5% and 64.8%, respectively.
On to `COc1cc([C@@H]2c3cc4c(cc3[C@@H](O[C@@H]3O[C@@H]5CO[C@@H](c6cccs6)O[C@H]5[C@H](O)[C@H]3O)[C@H]3COC(=O)[C@H]23)OCO4)cc(OC)c1O` [Teniposide], for which the inhibition at 20 µM in the assay on HUVEC-TIE2-L914F came out at 63.9%; in the assay with HUVEC-TIE2-WT, 49.9%.
With `COc1cc2nccc(Oc3ccc(NC(=O)C4(C(=O)Nc5ccc(F)cc5)CC4)cc3)c2cc1OC` [Cabozantinib], the inhibition at 20 µM in the assay with HUVEC-TIE2-L914F turned out to be 73.7%. Moreover, in the assay with HUVEC-TIE2-WT, the inhibition at 20 µM worked out at 58.3% and the IC50 is 2.89 ± 1.16 µM.
Consider `CCCCC(=O)OCC(=O)[C@]1(O)Cc2c(O)c3c(c(O)c2[C@@H](O[C@H]2C[C@H](NC(=O)C(F)(F)F)[C@H](O)[C@H](C)O2)C1)C(=O)c1c(OC)cccc1C3=O` [Valrubicin], for which the inhibition at 20 µM in the assay with HUVEC-TIE2-L914F worked out at 45.4%; with HUVEC-TIE2-WT it was 2.82%.
On to `CC[C@]1(O)C[C@@H]2CN(CCc3c([nH]c4ccccc34)[C@@](C(=O)OC)(c3cc4c(cc3OC)N(C)[C@H]3[C@@](O)(C(=O)OC)[C@H](OC(C)=O)[C@]5(CC)C=CCN6CC[C@]43[C@@H]65)C2)C1` [Vinblastine sulfate], for which the inhibition at 20 µM was determined as 35.4% in the assay with HUVEC-TIE2-L914F and 43% in the assay with HUVEC-TIE2-WT.
`CC(=O)[C@]1(O)Cc2c(O)c3c(c(O)c2[C@@H](O[C@H]2C[C@H](N)[C@H](O)[C@H](C)O2)C1)C(=O)c1ccccc1C3=O` [Idarubicin hydrochloride]: the inhibition at 20 µM in the assay on HUVEC-TIE2-L914F is 3.36%; with HUVEC-TIE2-WT, -4.82%.
Take `O=NN(CCCl)C(=O)NCCCl` [Carmustine]: the inhibition at 20 µM came out at 7.11% in the assay with HUVEC-TIE2-L914F and 3.32% in the assay on HUVEC-TIE2-WT.
Taken in the same sequence, the figures for `Nc1nc(Cl)nc2c1ncn2[C@@H]1O[C@H](CO)[C@@H](O)[C@@H]1F` [Clofarabine] were 44.2% and 35.2%.
With `Cc1ccc(-c2cc(C(F)(F)F)nn2-c2ccc(S(N)(=O)=O)cc2)cc1` [Celecoxib], the inhibition at 20 µM was 5.55% in the assay on HUVEC-TIE2-L914F and -10.2% with HUVEC-TIE2-WT.
Taken in the same sequence, the figures for `N#Cc1ccc(C(c2ccc(C#N)cc2)n2cncn2)cc1` [Letrozole] were 6.07% and -0.85%.
As for `O=C1CCC(N2C(=O)c3ccccc3C2=O)C(=O)N1` (stereo not shown) [Thalidomide], the figures for the inhibition at 20 µM with HUVEC-TIE2-L914F and with HUVEC-TIE2-WT were -2.35% and -5.38%, respectively.
Taken in the same sequence, the figures for `C#Cc1cccc(Nc2ncnc3cc(OCCOC)c(OCCOC)cc23)c1` [Erlotinib hydrochloride] were 10.7% and 25.5%.
As to `C=C1C[C@@H]2[C@H](CC[C@]3(C)C(=O)CC[C@@H]23)[C@@]2(C)C=CC(=O)C=C12` [Exemestane], the inhibition at 20 µM is 6.56% in the assay with HUVEC-TIE2-L914F and -4.29% in the assay on HUVEC-TIE2-WT.
As to `C1CN1c1nc(N2CC2)nc(N2CC2)n1` [Triethylenemelamine], the results for the inhibition at 20 µM with HUVEC-TIE2-L914F and in the assay on HUVEC-TIE2-WT were 40.6% and 20.7%, respectively.
On to `O=P(O)(O)C(O)(Cn1ccnc1)P(=O)(O)O` [Zoledronic acid], for which the inhibition at 20 µM in the assay on HUVEC-TIE2-L914F is -0.37%; in the assay with HUVEC-TIE2-WT, -11.7%.
Take `CN(C)/N=N/c1[nH]cnc1C(N)=O` [Dacarbazine]: the inhibition at 20 µM in the assay on HUVEC-TIE2-L914F was -3.94%; in the assay with HUVEC-TIE2-WT it was -3.57%.
For the molecule `Oc1ncc(N(CCCl)CCCl)c(O)n1` [Uracil mustard], the inhibition at 20 µM in the assay on HUVEC-TIE2-L914F was 17.5%; in the assay on HUVEC-TIE2-WT, 6.77%.
Taken in the same sequence, the figures for `Nc1ncn([C@@H]2O[C@H](CO)[C@@H](O)[C@H]2O)c(=O)n1` [Azacitidine] were 42.6% and 31.5%.
`CC(=O)Nc1cccc(-n2c(=O)n(C3CC3)c(=O)c3c(Nc4ccc(I)cc4F)n(C)c(=O)c(C)c32)c1` [Trametinib]: the inhibition at 20 µM is 40.2% with HUVEC-TIE2-L914F and -0.64% with HUVEC-TIE2-WT.
Consider `CC[C@H](Nc1ncnc2[nH]cnc12)c1nc2cccc(F)c2c(=O)n1-c1ccccc1` [Idelalisib], for which the results for the inhibition at 20 µM in the assay on HUVEC-TIE2-L914F and in the assay with HUVEC-TIE2-WT were 23.4% and 36.2%, respectively.
For `CC(=O)O[C@H]1C(=O)[C@@]2(C)[C@H]([C@H](OC(=O)c3ccccc3)[C@]3(O)C[C@H](OC(=O)[C@H](O)[C@@H](NC(=O)c4ccccc4)c4ccccc4)C(C)=C1C3(C)C)[C@]1(OC(C)=O)CO[C@@H]1C[C@@H]2O` [Paclitaxel], in that order: 42.9% and 41.6%.
Consider `Nc1nc(Cl)nc2c1ncn2[C@H]1C[C@H](O)[C@@H](CO)O1` [Cladribine], for which the figures for the inhibition at 20 µM in the assay with HUVEC-TIE2-L914F and in the assay with HUVEC-TIE2-WT were 40.2% and 33.4%, respectively.
In the case of `CO[C@H]1C(=O)[C@]2(C)[C@@H](OC)C[C@H]3OC[C@@]3(OC(C)=O)[C@H]2[C@H](OC(=O)c2ccccc2)[C@]2(O)C[C@H](OC(=O)[C@H](O)[C@@H](NC(=O)OC(C)(C)C)c3ccccc3)C(C)=C1C2(C)C` [Cabazitaxel], the figures for the inhibition at 20 µM in the assay on HUVEC-TIE2-L914F and in the assay with HUVEC-TIE2-WT were 21.1% and 32.4%, respectively.
Turning to `CC(C)C[C@H](NC(=O)[C@H](Cc1ccccc1)NC(=O)c1cnccn1)B(O)O` [Bortezomib], the inhibition at 20 µM with HUVEC-TIE2-L914F was determined as 81%; in the assay with HUVEC-TIE2-WT, 69.5%.
For `CNC(=O)c1cc(Oc2ccc(NC(=O)Nc3ccc(Cl)c(C(F)(F)F)c3)c(F)c2)ccn1` [Regorafenib], the inhibition at 20 µM came to 35.4% with HUVEC-TIE2-L914F and 34.7% in the assay with HUVEC-TIE2-WT.
With `Cc1nc(Nc2ncc(C(=O)Nc3c(C)cccc3Cl)s2)cc(N2CCN(CCO)CC2)n1` [Dasatinib, N-(2-Chloro-6-methylphenyl)-2-[[6-[4-(2-hydroxyethyl)-1-piperazinyl]-2-methyl-4-pyrimidinyl]amino]-5-thiazolecarboxamide], the values for the inhibition at 20 µM in the assay with HUVEC-TIE2-L914F and in the assay with HUVEC-TIE2-WT were 6.05% and 17%, respectively.
As for `COc1cccc2c1C(=O)c1c(O)c3c(c(O)c1C2=O)C[C@@](O)(C(C)=O)C[C@@H]3O[C@H]1C[C@H](N)[C@H](O)[C@H](C)O1` [Daunorubicin hydrochloride], the inhibition at 20 µM in the assay on HUVEC-TIE2-L914F came to 70%; with HUVEC-TIE2-WT, 57.3%.
Turning to `COc1cccc2c1C(=O)c1c(O)c3c(c(O)c1C2=O)C[C@@](O)(C(=O)CO)C[C@@H]3O[C@H]1C[C@H](N)[C@@H](O)[C@H](C)O1` [Epirubicin hydrochloride], the figures for the inhibition at 20 µM in the assay on HUVEC-TIE2-L914F and in the assay with HUVEC-TIE2-WT were 64.7% and 54.7%, respectively.
As for `OC[C@H]1O[C@@H](n2cnc3c2NC=NC[C@H]3O)C[C@@H]1O` [Pentostatin], the values for the inhibition at 20 µM in the assay with HUVEC-TIE2-L914F and in the assay on HUVEC-TIE2-WT were -2.59% and -5.53%, respectively.
Take `O=NN(CCCl)C(=O)NC1CCCCC1` [Lomustine]: the inhibition at 20 µM in the assay on HUVEC-TIE2-L914F came to 12%; in the assay with HUVEC-TIE2-WT, 11.4%.
Take `CC1=C(/C=C/C(C)=C/C=C/C(C)=C/C(=O)O)C(C)(C)CCC1` [Tretinoin]: the inhibition at 20 µM with HUVEC-TIE2-L914F is 0.11%; in the assay with HUVEC-TIE2-WT it was -7.14%.
Turning to `O=C1c2c(O)ccc(O)c2C(=O)c2c(NCCNCCO)ccc(NCCNCCO)c21` [Mitoxantrone], the inhibition at 20 µM came out at 73.6% with HUVEC-TIE2-L914F and 69.9% in the assay with HUVEC-TIE2-WT.
For the molecule `CC(C)C[C@H](NC(=O)[C@H](CCc1ccccc1)NC(=O)CN1CCOCC1)C(=O)N[C@@H](Cc1ccccc1)C(=O)N[C@@H](CC(C)C)C(=O)[C@@]1(C)CO1` [Carfilzomib], the results for the inhibition at 20 µM in the assay with HUVEC-TIE2-L914F and in the assay on HUVEC-TIE2-WT were 76.8% and 65%, respectively.
For the molecule `Nc1ccn([C@@H]2O[C@H](CO)[C@@H](O)C2(F)F)c(=O)n1` [Gemcitabine hydrochloride], the inhibition at 20 µM with HUVEC-TIE2-L914F came out at 52.7%; with HUVEC-TIE2-WT it was 37.4%.
Taken in the same sequence, the figures for `C/C=C1\NC(=O)[C@H]2CSSCC/C=C/[C@H](CC(=O)N[C@H](C(C)C)C(=O)N2)OC(=O)[C@H](C(C)C)NC1=O` [Romidepsin] were 29.7% and 39.1%.
Consider `CN(C)C/C=C/C(=O)Nc1cc2c(Nc3ccc(F)c(Cl)c3)ncnc2cc1O[C@H]1CCOC1` [Afatinib], for which the inhibition at 20 µM in the assay on HUVEC-TIE2-L914F came to 41.4%; in the assay with HUVEC-TIE2-WT, 13.1%.
For `CC(C)(C#N)c1cc(Cn2cncn2)cc(C(C)(C)C#N)c1` [Anastrozole], the values for the inhibition at 20 µM in the assay on HUVEC-TIE2-L914F and in the assay with HUVEC-TIE2-WT were 3.95% and -1.07%, respectively.
`CS(=O)(=O)CCNCc1ccc(-c2ccc3ncnc(Nc4ccc(OCc5cccc(F)c5)c(Cl)c4)c3c2)o1` [Lapatinib]: the inhibition at 20 µM is 6.44% with HUVEC-TIE2-L914F and -3.81% in the assay with HUVEC-TIE2-WT.
In the case of `CS(=O)(=O)OCCCCOS(C)(=O)=O` [Busulfan], the inhibition at 20 µM amounted to 0.26% in the assay on HUVEC-TIE2-L914F and 0.46% in the assay with HUVEC-TIE2-WT.
For `COc1cc2c(Nc3ccc(Br)cc3F)ncnc2cc1OCC1CCN(C)CC1` [Vandetanib], the figures for the inhibition at 20 µM with HUVEC-TIE2-L914F and in the assay on HUVEC-TIE2-WT were 66.7% and 49%, respectively. Further, the IC50 is over 10 µM with HUVEC-TIE2-L914F (read-out: IC50 L914F) and 5.63 ± 0.24 µM with HUVEC-TIE2-WT.

The values are drawn from patent US20180015075A1, “METHODS AND COMPOSITIONS FOR TREATMENT OF VENOUS MALFORMATION” (Children's Hospital Medical Center, priority 2016, published 2018).
